# Measurements taken from paper PMC4336329 (PLoS ONE, 2015).
# Among all 310,000 compounds or so, about 2,200 (0.71%) showed an effect of 50% or more. Effects have a minus sign here. The list shows a part of the results.
# Molecular target: human ether-à-go-go-related gene (hERG) potassium channel (human, UniProt Q12809)
# Experiment: primary screen, population patch clamp on CHO cells stably expressing hERG
# Sequence of human ether-à-go-go-related gene (hERG) potassium channel (Q12809 whole entry, looked up): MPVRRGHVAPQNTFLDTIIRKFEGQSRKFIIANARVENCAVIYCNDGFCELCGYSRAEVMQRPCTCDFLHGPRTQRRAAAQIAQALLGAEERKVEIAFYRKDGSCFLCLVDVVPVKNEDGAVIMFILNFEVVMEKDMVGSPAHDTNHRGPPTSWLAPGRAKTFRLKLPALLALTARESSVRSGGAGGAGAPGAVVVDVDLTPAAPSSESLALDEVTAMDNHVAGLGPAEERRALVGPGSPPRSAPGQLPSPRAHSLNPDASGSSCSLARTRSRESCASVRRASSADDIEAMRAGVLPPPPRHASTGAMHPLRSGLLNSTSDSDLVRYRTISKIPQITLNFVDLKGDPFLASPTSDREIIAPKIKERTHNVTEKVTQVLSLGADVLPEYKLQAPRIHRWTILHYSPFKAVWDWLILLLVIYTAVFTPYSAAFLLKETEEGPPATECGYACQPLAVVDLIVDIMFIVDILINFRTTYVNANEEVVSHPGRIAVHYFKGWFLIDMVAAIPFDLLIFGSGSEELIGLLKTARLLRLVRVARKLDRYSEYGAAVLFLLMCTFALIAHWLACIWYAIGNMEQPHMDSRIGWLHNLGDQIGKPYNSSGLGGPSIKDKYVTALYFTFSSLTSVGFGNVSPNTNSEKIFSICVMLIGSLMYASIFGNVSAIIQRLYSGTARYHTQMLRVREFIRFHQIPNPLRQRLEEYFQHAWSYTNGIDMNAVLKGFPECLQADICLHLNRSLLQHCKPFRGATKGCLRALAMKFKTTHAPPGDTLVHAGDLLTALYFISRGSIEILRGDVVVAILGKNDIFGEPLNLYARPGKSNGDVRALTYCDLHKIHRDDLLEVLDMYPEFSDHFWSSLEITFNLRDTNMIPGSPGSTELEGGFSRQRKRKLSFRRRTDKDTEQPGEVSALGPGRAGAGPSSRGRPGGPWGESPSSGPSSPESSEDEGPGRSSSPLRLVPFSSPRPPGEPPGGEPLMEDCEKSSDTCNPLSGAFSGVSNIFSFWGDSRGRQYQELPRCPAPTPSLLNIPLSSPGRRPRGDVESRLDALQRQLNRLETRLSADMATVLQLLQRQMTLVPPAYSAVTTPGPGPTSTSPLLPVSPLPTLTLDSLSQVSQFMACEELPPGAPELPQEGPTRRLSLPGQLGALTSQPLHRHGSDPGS
row,Compound,"hERG current change (%, negative = inhibition) at 1uM [%]"
1,CCOC(=O)c1cc(NC(=O)Nc2ccccc2Cl)c(C)nc1C,14.3
2,Cc1sc2nc(SCCO)n(-c3ccccc3)c(=O)c2c1C,15.6
3,Cc1cc(C)n2nc(CC(=O)NNC(=O)COc3cccc(C)c3C)nc2n1,18.7
4,COc1ccc(/C=C(\NC(=O)c2ccc(Cl)cc2)C(=O)NCCCN2CCOCC2)cc1OC,9.09
5,N#CC1C(=O)NC(N2CCN(c3ccccc3)CC2)=NC12CCCCC2 (centres unmarked),-1.07
6,CCN1CCN(c2cc(C)c3cc(NC(=S)N4CCOCC4)ccc3n2)CC1,0.159
7,CCOc1ccc(S(N)(=O)=O)cc1-c1nc2c(C(C)(C)C)nn(C)c2c(=O)[nH]1,12
8,Cc1ccc(S(=O)(=O)/N=C(/c2ccccc2)N(C)C)c(C)c1,20.4
9,CN1CCN(C(=O)c2cccn(Cc3c(Cl)cccc3Cl)c2=O)CC1,12.1
10,COc1cc(C=O)ccc1OCCSc1ccc(C)cc1,-3.34
11,Cc1c(Br)ccc(NC(=O)Cn2nc(-c3cccs3)ccc2=O)c1C,25.7
12,CCC(C(=O)Nc1ccccc1OC)n1c(C(=O)OC)cc2ccsc21 (centres unmarked),-4.62
13,CCCCCC(=O)N(CN1C(=O)CCC1=O)c1ccccc1,13.9
14,CC1=C(C(=O)OC(C)C)C(c2cccc(F)c2)n2ncnc2N1 (centres unmarked),0.103
15,S=C(NCc1ccccc1)NCC1COc2ccccc2O1 (centres unmarked),10.3
16,COC(=O)C1=C(C)N(c2ccc(Cl)c(Cl)c2)C(=O)C1,2.22
17,CN(CCc1ccccn1)Cc1ccc(Cl)c(Cl)c1,-0.903
18,CC(=O)c1cccc(NC(=S)NC(=O)c2ccccc2Cl)c1,2.07
19,CCCCc1ccc(NC(=O)Nc2cccnc2)cc1,7.22
20,O=C(NCC1CCCO1)C(c1ccc(F)cc1)N(C(=O)Cn1nnc(-c2ccc(F)cc2)n1)c1cccc(O)c1 (centres unmarked),9.23
21,CCC(c1c(C)[nH]oc1=O)c1c(C)[nH]oc1=O,11.8
22,CN(C)c1ccc(C=NCC2(O)CCOC(C)(C)C2)cc1 (centres unmarked),8.68
23,Oc1ccc(Cl)cc1C1=Nc2ccccc2N=C(c2ccco2)C1,3.46

row,Compound,"hERG current change (%, negative = inhibition) at 1uM [%]"
1,O=C(Nc1ccc(F)cc1)c1cccnc1N1CCCCC1,0.314
2,CCN(CC)CCCN1C(=O)C2C(C(=O)Nc3ccc(C(C)C)cc3)C3C=CC2(O3)C1C(=O)NC1CCCCC1 (centres unmarked),17.4
3,O=C(Nc1cc(C(F)(F)F)ccc1Cl)C(NCc1ccccc1)c1ccccc1 (centres unmarked),15.6
4,COc1ccc(NC(=O)c2ccc(C)cc2Cl)c([N+](=O)[O-])c1,23.1
5,Cc1ccccc1C(=O)N1CCC(C(N)=O)CC1,14.5
6,CCN(CC(=O)Nc1ccccc1C(F)(F)F)C(=O)CCc1ccccc1,9.35
7,O=[N+]([O-])c1ccc(O)c(/C=N/Nc2ccccc2[N+](=O)[O-])c1,7.14
8,O=C(Nc1cccc(NC(=O)C2CC2)n1)C1CC1,7.4
9,COc1ccccc1C(=O)C1CCCN(Cc2ccc(Oc3ncccn3)cc2)C1 (centres unmarked),-0.388
10,CC[C@H](C)[C@H](NC(=O)c1ccccc1)C(=O)Nc1ccc(S(=O)(=O)Nc2cc(C)nc(C)n2)cc1,3.65
11,O=C(NCCc1ccc(Cl)cc1)C1CCN(C(=O)N2CCOc3ccccc32)CC1,-7.14
12,O=C(Cc1ccccc1)N/N=C/c1cc(Br)cc(Br)c1O,13.5
13,COCCCNc1nc(SCc2ccccc2)nc2sc3c(c12)CCC3,26.3
14,CCOc1ccccc1CNC(=O)CCCn1ccc2cc(S(=O)(=O)N3CCCC3)ccc21,3.88
15,O=C(NCc1cccs1)c1cc(-c2ccccc2)nn1CC1CC(c2cccc([N+](=O)[O-])c2)=NO1 (centres unmarked),-0.472
16,Cc1ccc(C(N)=Nc2ccccc2)cc1,14.3
17,CCOC(=O)c1c(NC(=O)CN2CCN(C)CC2)sc(C(=O)Nc2ccccc2)c1C,-0.328
18,COc1cc(CCC(=O)OCC(=O)NCc2ccc(Cl)cc2)cc(OC)c1OC,16.3
19,Cn1cc(S(=O)(=O)N2CCCC2)cc1C(=O)NCc1ccc(F)cc1,3.87
20,CCOC(=O)CC(NC(=O)Cc1ccccc1)c1ccccc1Cl (centres unmarked),0.874
21,Cc1nn2c(-c3cccc(NC(=O)CSc4nc5ccccc5o4)c3)nnc2c2ccccc12,-35.4
22,COc1ccc(C2C(C(=O)Nc3ccccn3)=C(C)Nc3ncnn32)c(OC)c1 (centres unmarked),12.8
23,Cc1cc(C(=O)Nc2ccc(S(=O)(=O)Nc3nccs3)cc2)c(C)o1,-8.29

row,Compound,"hERG current change (%, negative = inhibition) at 1uM [%]"
1,O=C(NC1CCCC1)c1cc(-c2ccccc2)on1,3.64
2,O=C(O)C(=O)O.O=C(c1ccccc1)N1CCN(C2CCCCC2)CC1,-4.37
3,COc1ccc(-c2nc3ccc([N+](=O)[O-])cc3o2)cc1,7.65
4,CCOC(=O)c1c(NC(=O)c2ccc(N3C(=O)[C@@H]4[C@H](C3=O)[C@H]3C=C[C@@H]4C3)cc2)sc2c1CCCC2,4.8
5,Cn1c(=O)c2c(ncn2CC(=O)Nc2ccc(Cl)cc2Cl)n(C)c1=O,3.86
6,Cc1cc(C)nc(Nc2ccc(Br)cc2C(=O)O)n1.Cl,17.3
7,Cc1ccoc1C(=O)NCCNc1ccc(Cl)cc1[N+](=O)[O-],-2.58
8,CC(=O)Oc1c(Cl)cc(N(C(C)=O)S(=O)(=O)c2ccccc2)c2ccccc12,11.4
9,CC(C)NC(=S)N/N=C/c1ccc(C(C)(C)C)cc1,11.3
10,Cc1cccc(C)c1NC(=O)c1cc(S(=O)(=O)N2CCOCC2)cn1C,13.6
11,CCOCCOC(=O)Cn1cnc2scc(-c3ccc(C)cc3)c2c1=O,11.8
12,Cc1cc(-c2sccc2C)nc(-n2cccc2)n1,2.44
13,O=C(Nc1ccccc1F)Nc1ccccc1F,-4.38
14,COCCNC(=S)NC1CC2CCCC(C1)N2Cc1cccs1 (centres unmarked),-1.25
15,CC(C1CC1)N(Cc1ccccc1)C(=S)Nc1ccccc1 (centres unmarked),2.49
16,COc1ccc(-c2nn(C)c(=O)c3ccccc23)cc1NC(=O)COc1ccccc1,7.34
17,O=[N+]([O-])c1cc(C(F)(F)F)ccc1N1CCCC(O)C1 (centres unmarked),10.7
18,Cc1cc(NC(=O)C2CC(=O)OC2c2ccccc2)no1 (centres unmarked),8.27
19,CN(C)CCNS(=O)(=O)c1ccc(N2CCc3ccccc32)c([N+](=O)[O-])c1,-1.12
20,Cc1cc(C)n(-c2ccc(C(=O)Nc3ccc4c(c3)OCO4)cc2)n1,9.94
21,CCCC(=O)Nc1ccc(C(=O)NNC(=O)c2ccccc2Br)cc1,16.6
22,CCOC(=O)C1=C(C)N=c2s/c(=C\c3cc(OC)c(OC)c(OC)c3)c(=O)n2C1/C=C/c1ccccc1 (centres unmarked),3.85
23,COc1ccc(C(=O)c2ccc(OC)c(OC)c2)cc1OC,15.4

row,Compound,"hERG current change (%, negative = inhibition) at 1uM [%]"
1,CCOC(=O)c1cnc2ccc(Br)cc2c1NCCO,8.05
2,Cn1cc(-c2cccc(C(F)(F)F)c2)cc(C#N)c1=O,7.37
3,Cc1ccsc1C(=O)NNC(=O)C1CCCCC1C(=O)O (centres unmarked),7.14
4,CCOC(=O)c1sc(=NC(=O)CCS(=O)(=O)c2ccccc2)n(C)c1C,11.7
5,O=C(NC(C(=O)N/N=C/c1cccc2ccccc12)c1n[nH]c(=O)c2ccccc12)c1ccccc1 (centres unmarked),13.7
6,CCN(Cc1ccncc1)Cc1nc(Cc2ccccc2Cl)no1,2.33
7,CC(=O)c1cccc(OCC(O)CNCC2CCCCC2)c1 (centres unmarked),11.8
8,COc1cc2nc(CN(C)Cc3ccc(OC)c(OC)c3OC)[nH]c(=O)c2cc1OC,17.7
9,Clc1ccc(Nc2cc(-c3ccccc3)nc3ncnn23)cc1,20.3
10,CCCCCn1c2c(c(=N)c3ccccc31)CCC2.I,-61.5
11,CCCCCCCCCCC(=O)Nc1cccnc1,15.8
12,COc1ccc(OCC(=O)Nc2ccc3oc(=O)ccc3c2)cc1,4.64
13,COc1ccccc1C(=O)N/N=C/c1cnc2ccccc2n1,6.27
14,CC(=O)c1c(C(C)=O)c(C)n(-c2ccc(N)c(C)c2)c1C,13
15,CS(=O)(=O)c1ccccc1COC(=O)Nc1ccc(Cl)cc1,11.2
16,Cc1ccccc1NC(=O)C(Cc1ccccc1)n1cccc1 (centres unmarked),13
17,O=C(NC(=S)NCC1CCCO1)c1ccccc1Br (centres unmarked),6.78
18,Cc1ccc(C(=O)c2c(NC(=O)c3ccccc3)sc(C)c2C)cc1,22.3
19,OCCOc1nnnn1-c1ccccc1,12.6
20,O=C(NC1CCCCC1)c1cc(Cl)nc2ccccc12,16.5
